Assay results from PubChem BioAssay AID1345082 (National Center for Advancing Translational Sciences (NCATS), 2018).
In all, about 94,000 compounds went through this assay and about 4,000 (4.3%) were called active. The inconclusive results got no clear call from the source; some entries with a clear call stand among them for comparison. The call rests on the fitted dose curve; in most records, active means well fitted inhibition curve with a large enough effect; inconclusive means small, poorly fitted or top-dose-only effect; inactive means no such curve, though single readings can be large or run the other way. A potency beside an inconclusive call is a rough fit, not a confirmed value.

Assay: Cytotoxic Profiling in NIH 3T3 Cell Line of Diverse Libraries Using Quantitative High-Throughput Screening; further: nearly all actives have a fitted effect of over 55% in size
Details: NIH 3T3 viability, CellTiter-Glo ATP luminescence, 48-72 h; series mostly up to 96.7 µM
Method in brief: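 Luminescent ATP readout (CellTiter-Glo, 10 min RT) after 48 or 72 hr compound exposure of NIH 3T3 cells seeded at 400 cells/well in 1536-well format; quantitative HTS.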
Potency means the concentration at half of the fitted maximal effect; tags describe the fitted curve by direction and shape.

SMILES	Potency
CN(C)C(=O)c1n[nH]c2c1CN(C(=O)c1cccc(Cl)c1)CC2	inactive
CNC(=O)[C@H]1C[C@]2(CCCCNC2=O)N(C(=O)c2ccco2)[C@H]1c1ccccc1	inconclusive: 79.4 µM [inhibitor, single point]
COCC(=O)N[C@@H]1CNCC[C@@H]1c1nc(C)no1	inactive
CNC(=O)[C@@H]1C[C@H]2CN(C)C(=O)c3cccc(c32)N1C(=O)COc1ccccc1	inactive
CC(=O)N1CCC(c2nnc3n2C(C(=O)Nc2ccc(C)cc2)CC3)CC1 (stereo not given)	inactive
COC(=O)[C@@H]1Cc2ncn(Cc3ccc(OC)cc3)c2CN1S(=O)(=O)c1cccc(C(F)(F)F)c1	inconclusive: 79.4 µM [inhibitor, partial curve, poor fit]
CNC(=O)[C@H]1C[C@H](Oc2cccnc2)CN1C(=O)NCc1ccc(C)cc1	inactive
Cc1noc(-c2ccc(OC3CN(C(=O)c4cccc5[nH]ccc45)C3)cc2)n1	inconclusive: 44.7 µM [inhibitor, partial curve, poor fit]
CN(C)c1nc2c(c(=O)[nH]1)CCN(Cc1cc(Cl)ccc1F)CC2	inactive
O=C(NCc1ccc(F)cc1)c1noc(-c2ccc3c(c2)OCO3)n1	inactive
C[C@@H](NS(C)(=O)=O)c1onc(-c2ccccc2)c1C(=O)O	inactive
COc1ccc(-c2cccc(C(=O)N3CCN(C(=O)Cc4ccc(F)cc4)CC3)c2)nn1	inactive
O=C(CCN1CCCCO1)N1CCCn2nc(C(O)C3CCC3)cc2C1 (stereo not given)	inactive
COc1ccc(C(C)NC(=O)c2cc3c(N4CCSCC4)nc(C)cn3n2)cc1OC (stereo not given)	inconclusive: 44.7 µM [inhibitor, partial curve, poor fit]
CC(C)CCN1CCC(N2CCN(C(=O)c3cccc(Br)c3)CC2)C1=O (stereo not given)	inactive
O=C1c2c(nc(CN3CCC(F)(F)CC3)n2Cc2ccccc2)NCCN1CCOc1ccccc1	inactive
CCOC(=O)C1CCN(C(=O)c2ccc3nnc(-c4cc(C(F)(F)F)cc(C(F)(F)F)c4)n3c2)CC1	inactive
CC(C)CCN1CCCC2(CC(Cc3ccccc3)=NO2)C1 (stereo not given)	inactive
CCN1c2cc(C(=O)Nc3ccc(C)c(Cl)c3)ccc2C(=O)N2CCCC21 (stereo not given)	inconclusive: 70.8 µM [inhibitor, single point]
Cn1cnc(S(=O)(=O)N2CCC(Cc3nncn3-c3ccccc3)CC2)c1	inactive
Cc1nn2c(c1-c1ccccc1Oc1ccccc1)N(Cc1cccc(O)c1)CCC2	active: 14.1 µM
O=C(Nc1cccc(-c2nnc3n2CCCC3)c1)c1ccco1	inactive
COCC(=O)N1CCn2c(nn(-c3ccc(F)cc3)c2=O)C1	inconclusive: 100 µM [inhibitor, partial curve, poor fit]

SMILES	Potency
Cc1noc(C)c1C(=O)N1CCC2(CC1)CN([S+](C)(=O)[O-])Cc1ccccc1O2	inactive
O=C(NC1CCCc2c1[nH]c1c(Cl)cccc21)c1ccco1 (stereo not given)	inconclusive: 44.7 µM [inhibitor, partial curve, poor fit]
COCc1cc(=O)n(CC(=O)Nc2ccc(C)cc2Cl)c(N2CCOCC2)n1	inactive
O=C(c1cccc(C(F)(F)F)c1)N1CCC(Oc2ncccc2C(=O)N2CCCCC2)C1 (stereo not given)	inconclusive: 70.8 µM [inhibitor, single point]
O=C(c1ccc(Cl)cc1)N(CC1CCOC1)C1CC1 (stereo not given)	inactive
COc1ccc(-c2cc3nc4c(c(=O)n3[nH]2)CN(C(=O)NCc2ccco2)CC4)cc1	inconclusive: 39.8 µM [inhibitor, partial curve]
COc1ccc(-c2ccnc(N[C@H]3CO[C@H]4[C@@H]3OC[C@@H]4NS(=O)(=O)c3ccc4ccccc4c3)n2)cc1	inconclusive: 44.7 µM [inhibitor, partial curve, poor fit]
COc1cccc(-c2c(C(=O)NCc3ccc(Cl)cc3)nc3sccn23)c1	inconclusive: 31.6 µM [inhibitor, full curve]
CC(C)CCN1CCc2ncc(C(=O)NCCOc3ccccc3)n2CC1	inconclusive: 22.4 µM [inhibitor, full curve, poor fit]
CCCCNC(=O)c1nnn2cc(-c3ccc(Cl)cc3)[nH]c(=O)c12	inconclusive: 50.1 µM [inhibitor, partial curve, poor fit]
CC1(c2ccccc2)N(Cc2ccc(O)cc2)C(=O)OC12CCN(Cc1cccnc1)CC2 (stereo not given)	inconclusive: 70.8 µM [inhibitor, single point]
CNC(=O)c1cc(C2CC2)nc2onc(C3CCN(C(=O)C(C)(C)C)CC3)c12	inactive
O=C(Nc1ccc2c(N3CCCC3)ncnc2c1)c1ccc(Cl)cc1	inconclusive: 56.2 µM [inhibitor, partial curve, poor fit]
O=C(C1CC1)N1CCCC(Cc2noc(-c3ccccc3)n2)C1 (stereo not given)	inconclusive: 35.5 µM [inhibitor, partial curve]
Cc1ccccc1-c1onc(C)c1C(=O)NCc1cc(F)cc(F)c1	inconclusive: 39.8 µM [inhibitor, partial curve]
COc1ccc(-c2nnc3ccc(N4CCc5ccccc5C4)nn23)nc1	inconclusive: 56.2 µM [inhibitor, partial curve, poor fit]
O=C(c1ccc(-c2ccc(CO)cc2)nc1)N1CCC(CCc2ccccc2)CC1	inconclusive: 15.8 µM [inhibitor, full curve, poor fit]
CSc1cccc(NC(=O)O[C@@H]2CC[C@]3(C)C(CC[C@@H](O)[C@H]3CC(=O)N3CCCC3)[C@]2(C)CO)c1 (stereo not given in full)	inconclusive: 44.7 µM [inhibitor, partial curve, poor fit]
O=C(c1ccc(Cl)nc1)N1CCn2c(nnc2C2CC2)C1	inactive
COc1cccc(C(CC(=O)NC2CCCCC2)c2c[nH]c3ccccc23)c1OC (stereo not given)	inconclusive: 44.7 µM [inhibitor, partial curve, poor fit]
O=C(NCc1ccccc1Cl)c1cn2cc(-c3ccccc3)sc2n1	inactive
O=C(C1CCCC1)N1CC2(CCN(CC3CC3)CC2)Cc2ccccc21	inconclusive: 89.1 µM [inhibitor, partial curve, poor fit]
